According to PubChem BioAssay AID2546 (National Center for Advancing Translational Sciences (NCATS), 2010):
Hit rate of the full screen: of about 310,000 compounds, about 11,000 (3.5%) were called active. The inconclusive results got no clear call from the source; some entries with a clear call stand among them for comparison. Calls come from the whole dose curve; as a rule, active = well fitted inhibition curve with a large enough effect; inconclusive = small, poorly fitted or top-dose-only effect, or effect the other way; inactive = flat fitted curve, though single readings scatter. No potency is given beside an inconclusive call; the fits are too rough.

test: VP16 counterscreen qHTS for inhibitors of ROR gamma transcriptional activity; conditions: Drosophila S2 Gal4-VP16 UAS-luciferase, luminescence, 20 h; activity, negative = inhibition: at 53.6 µM (top of the series);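 note: Gal4-VP16 expression switched on by copper sulfate through the metallothionein promoter; nearly all actives have a fitted effect of over 50% in size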
% is set by controls: 0 for no effect and ±100 for the full control effect; potency is the fitted concentration of half-maximal effect; tags give direction and shape of the fitted curve.

Structure (SMILES)	Potency	activity, negative = inhibition
CCS(=O)(=O)c1cc([N+](=O)[O-])c(Sc2ccccc2N)s1	inconclusive [inhibitor, single point]	–
COc1ccc2cc3cc(C(=O)Nc4ccc5c(c4)OCCO5)oc3nc2c1	inconclusive [inhibitor, single point]	–
O=C(N/N=C/c1cccc([N+](=O)[O-])c1)c1ccccc1-n1cccc1	inconclusive [inhibitor, single point]	–
CCOC(=O)c1cnc2ccc(OC)cc2c1NCc1ccccc1	inconclusive [inhibitor, single point]	–
COc1ccc(-c2noc(-c3ccco3)n2)cc1OC	inconclusive [inhibitor, partial curve]	–
CCC(=O)N1CCN(c2ccc(NC(=O)c3ccc(C#N)cc3F)cc2Cl)CC1	inconclusive [inhibitor, single point]	–
O=C(CN1CCC(NC(=O)c2cccc(F)c2)CC1)NCc1ccccc1F	inconclusive [inhibitor, single point]	–
CC(=O)c1ccc(N2CCN(C(=O)C3CCN(S(=O)(=O)Cc4ccccc4)CC3)CC2)cc1	–	inactive: -22%
Cc1cc2oc(C(=O)N(Cc3ccco3)C3CCS(=O)(=O)C3)cc(=O)c2cc1Cl (stereo not drawn)	inconclusive [activator, single point]	–
Cc1ccc2c(Cl)cc(Cl)c(OCC(=O)NC3CCS(=O)(=O)C3)c2n1 (stereo not drawn)	active: 11.2 µM	–
COc1ccc(/C=C/C(=O)NC(=S)N2CCN(C)CC2)cc1	inconclusive [inhibitor, single point]	–
Cc1cc(=O)n(C(C)(C)C)c(=O)n1Cc1ccccc1	–	inactive: 3.2%
COc1ccc(C(=O)Nc2sc(C(=O)N(C)C)c(C)c2C#N)cc1[N+](=O)[O-]	active: 15.8 µM	–
Cc1nc(NC(=O)c2cc3ccccc3o2)sc1C	inconclusive [inhibitor, full curve]	–
Cc1ccc(NC(=S)NC2CCN(Cc3ccccc3)CC2)cc1	inconclusive [inhibitor, single point]	–
COc1ccc(C(=O)N[C@H](C(=O)Nc2ccc(OC)nc2)C(C)C)cc1	inconclusive [inhibitor, single point]	–
COc1ccc2oc(-c3ccco3)cc(=O)c2c1	inconclusive [activator, full curve, poor fit]	–
CC(C)CC(C(=O)OCC(=O)Nc1ncc(Cl)cc1Cl)N1C(=O)c2ccccc2C1=O (stereo not drawn)	inconclusive [inhibitor, single point]	–
